Source: PubChem BioAssay AID463173 (ICCB-Longwood Screening Facility, Harvard Medical School, 2010)
Screen size: about 52,000 compounds; about 1,700 (3.3%) were called active. Rule as the data show it: active = survival mostly below about 52% (no sharp cut-off); inactive = mostly above about 56%. Some of the results follow.

system: Wild type; test: growth inhibition of S. aureus wild type versus tarO mutant, primary screen, teichoic acid synthesis inhibitors, RN4220, OD600 (AID 463173); conditions: S. aureus RN4220 wild type/DeltatarO growth, OD600, 18 h, stronger effect = lower value, screened at 18.75 µg/mL (by protocol)

SMILES	survival
CCC(=O)Nc1cccc(NC(=O)CSc2nnnn2C(C)C)c1	inactive: 112%
CC(C)Cn1c(-c2ccc(Cl)cc2)cnc1SCC(=O)N1CCCC1	inactive: 132%
O=C(C1CCC1)N1CCc2cc(S(=O)(=O)NCCc3ccccc3)ccc21	inactive: 111%
Cc1nn(-c2ccc(N3CCCC3)nn2)c(C)c1CCC(=O)N1CCN(c2ccccc2F)CC1	inactive: 81%
CCCN(Cc1cccs1)C(=O)Nc1cc(C)cc(C)c1	inactive: 107%
CC1CCN(C(=O)c2cc3n(n2)C(C(F)(F)F)CC(c2ccccc2)N3)C(C)C1 (centres undefined)	inactive: 123%
CCN(CC)C(=O)Cn1c(=O)n(-c2ccc(Cl)cc2)c(=O)c2c3c(sc21)CCCCC3	inactive: 98%
Cc1nn(C)c2c1c(-c1ccccc1)cc(=O)n2Cc1ccc(F)cc1Cl	inactive: 69%
O=S1(=O)CCC(NC2CCCCC2)C1 (centres undefined)	inactive: 95%
CCS(=O)(=O)c1nnnn1-c1ccccc1	active: 1%
COc1ccc(NC(=O)CC2C(=O)N(c3ccc(OC)cc3)C(=O)N2Cc2ccc(OC)c(OC)c2)cc1 (centres undefined)	inactive: 127%
CCOc1ccc(N2CC(NC(=O)Cc3cccs3)CC2=O)cc1 (centres undefined)	inactive: 89%
CCOc1ccc(C(c2nnnn2C(C)C)N2CCN(c3cccc(Cl)c3)CC2)cc1 (centres undefined)	inactive: 102%
CCOc1ccc(CN2CCC(C(=O)NCC3CCCO3)CC2)cc1OC (centres undefined)	inactive: 99%
COc1ccc(-c2nc3ccccc3o2)cc1NC(=O)c1cccc2c(Cl)cccc12	inactive: 68%
CCOc1ccc(CCNC(=O)CCn2c(=O)c3cccn3c3ccc(F)cc32)cc1OCC	inactive: 71%
CCC(CC)c1nc2ccccc2c(=O)[nH]1	inactive: 102%
CCOc1ccc(NC(=O)CCc2c(C)nc3c4c(C)cc(C)nc4nn3c2C)cc1	inactive: 130%
COCC(=O)Nc1nc(-c2ccccc2)cs1	inactive: 115%
Cc1ccc(C)c(CSc2cn(CC(=O)N3CCCC3)c3ccccc23)c1	inactive: 77%

SMILES	survival
COc1ccc2cc(-c3nc(-c4ccc(N(C)C)cc4)no3)c(=O)oc2c1	inactive: 99%
CN(Cc1ccccc1)c1ccc2cc(S(=O)(=O)N3CCCCC3)ccc2n1	inactive: 57%
COc1ccc(N2CCN(C(=O)c3ccc4c(c3)CCN4S(=O)(=O)c3ccccc3)CC2)cc1	inactive: 103%
O=C(c1ccccc1)N1CCC(O)(c2cccnc2)CC1	inactive: 110%
COc1cc(NC(=O)CSc2cc(=O)n(C)c3ccccc23)cc(OC)c1OC	inactive: 81%
CC(NCc1ccc2c(c1)n(C)c(=O)n2C)c1ccccc1 (centres undefined)	inactive: 86%
Cc1c(C(=O)N(C)Cc2ccccc2)sc2nc(-c3ccc(F)cc3)cn12	inactive: 97%
COc1cccc(-c2cc(C(=O)NCc3ccccc3)no2)c1	inactive: 85%
Cc1cc(C)n2nc(CNC(=O)c3cccc(N(C)C)c3)nc2n1	inactive: 120%
Cc1ccc(-c2cn3c(n2)sc2cc(C(=O)NC4CCCCCC4)ccc23)cc1	inactive: 113%
COCCCNC(=O)C1CCN(Cc2cc3ccccc3n2Cc2cccc(Cl)c2)CC1	inactive: 72%
Cc1noc2ncnc(NCCc3ccccc3)c12	inactive: 74%
Cc1ccc(NS(=O)(=O)c2ccc3nc(-c4ccccc4)[nH]c3c2)cc1Cl	active: 1%
CCn1cc(C(=O)N(C)c2cc(C)ccc2C)c2cc(OC)c(OC)cc2c1=O	inactive: 149%
O=S(=O)(Nc1nc2n(n1)C(c1ccc(F)cc1)C=C(c1ccc(Cl)cc1)N2)c1ccccc1 (centres undefined)	inactive: 57%
CSc1nn(CC(=O)Nc2ccc(C)cc2C)c(N)c1S(=O)(=O)c1ccc(Cl)cc1	inactive: 70%
COc1ccc(Br)cc1CNC(=O)C1CCN(c2nnc(-n3cccc3CNc3ccc(C)cc3)s2)CC1	inactive: 79%
COc1cc2c(C(=O)N3CCN(c4ccc(F)cc4)CC3)cn(CC(C)C)c(=O)c2cc1OC	inactive: 72%
CCN1/C(=C2/SC(=S)N(N)C2=O)Sc2ccccc21	inactive: 103%
CCOc1ccccc1NC(=O)C1CCCN(S(=O)(=O)c2cccs2)C1 (centres undefined)	inactive: 94%

SMILES	survival
CCCCOc1ccccc1NC(=O)CC1Sc2ccccc2NC1=O (centres undefined)	inactive: 144%
COc1ccccc1Cc1nc2ccccc2nc1SCC(=O)N1CCCCC1	inactive: 73%
COc1ccccc1CN1CCC(C(=O)NCc2ccc(C)cc2)CC1	inactive: 106%
COc1ccc(NC(=O)c2sc3nc4n(c(=O)c3c2C)CCC4)c(OC)c1	inactive: 96%
CCOC(=O)N1CCN(c2ncc3c(n2)CC(c2ccc(OC)c(OC)c2)CC3=O)CC1 (centres undefined)	inactive: 77%
COc1ccc(CCNC(=O)CCc2c(C)nc3cc(-c4ccc(Cl)cc4)nn3c2C)c(OC)c1	inactive: 143%
Cc1noc(/C=C/c2ccccc2F)c1S(=O)(=O)N1CCC(C(=O)NCc2ccco2)CC1	inactive: 136%
CCOC(=O)c1ccccc1NC(=O)N1CCCn2nc(C)cc21	inactive: 68%
O=C(/C=C(/O)c1cccnc1)C(F)(F)F	inactive: 86%
COc1ccc(C(=O)Nc2cccc(OCc3cc(=O)n4c5c(sc4n3)CCCC5)c2)cc1OC	inactive: 64%
Cc1cc(C)cc(N2C(=O)CSC23C(=O)N(CC(=O)NC2CCCCC2)c2ccccc23)c1 (centres undefined)	inactive: 115%
CCc1ccc(NC(=O)Cn2c(=O)n(Cc3ccc(C)cc3)c(=O)c3cccnc32)cc1	inactive: 93%
CC(=O)N1CCCc2cc(S(=O)(=O)N3CCC(C(=O)N(C)C4CCCCC4)CC3)ccc21	inactive: 81%
Cc1ccccc1C(=O)Nc1nnc(S(=O)(=O)N2CCc3ccccc32)s1	inactive: 94%
O=C(/C=N/O)Nc1cccnc1	inactive: 86%
CN(c1ccc(C(=O)N2CCCCC2)cc1)S(C)(=O)=O	inactive: 89%
O=C(CCS(=O)(=O)c1cc(Br)cc2c1N(C(=O)C1CC1)CC2)N1CCN(c2ccccc2)CC1	inactive: 87%
COc1ccc(OC)c(CCNC(=O)c2cnn(-c3ccccc3)c2-n2cccc2)c1	inactive: 72%
CNC(=O)C1CCN(C(=O)N2CC(C)Oc3ccc(Cl)cc32)CC1 (centres undefined)	inactive: 84%
